Laboratory results: the supplement of paper PMC11417369
± gives the standard deviation of the averaged measurements. Some of the results follow.

tested on: PfAP2-G AP2 domain (GST-tagged); test: gcPBM binding intensity (ln(normalized median fluorescence intensity)); higher = stronger DNA binding
Summary of the method: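 Binding of GST-tagged P. falciparum DNA-binding domains, expressed in E. coli and used at about 25 μg on average, was carried out for 1 h in 1× PBS containing 1% milk, 0.2 mg/ml BSA, 0.5% salmon testes DNA and 0.03% Triton X-100. The target was an Agilent 4 × 180k array of primer-extended double-stranded 36-bp intergenic genomic probes plus negative controls, read with Alexa488 anti-GST antibody at 488 nm. Binding intensity is the highest Masliner-normalised natural-log median intensity across replicate spots of either probe orientation.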

| Sequence | gcPBM binding intensity (ln) |
| --- | --- |
| GGACTTTATAAAAATGGTACACGCAATTCTATAATC [XGTACX_site6515] | 11 ± 0.65 |
| TATTGTATAAAAATAACATGCAATCCTTATACTGCT [TGCATGCA_site345] | 9.62 ± 0.25 |
| TGTACAGTAAATACAACACACATTTGTATAAATATA [CACACA_site4705] | 10.4 ± 0.078 |
| TATATATTATATTCATGTACGTAAAAATTTTGAATA [XGTACX_site6734] | 11.4 ± 1 |
| ATTTATTTTATAATATATAAATGATATATCTTATTA [CACACA_negctrl_site66] | 9.55 ± 0.099 |
| AATGACATTCTTACACGTACAAAATAAAAAATAAAA [XGTACX_site6932] | 11.3 ± 0.95 |
| TATGTTGTTTATTTAGTGCATATTTAAATATTATAA [GTGCAC_site9601] | 10.3 ± 0.3 |
| CCATATGATATATATTGTACATTATATATTATTTCT [XGTACX_site1697] | 10.7 ± 0.45 |
| ATATTATTATTAGTTTCACACATTTAATGAAACTAA [CACACA_site5677] | 10.1 ± 0.16 |
| TATAAATTATAAATTGCACACATATTTTTATATTTA [CACACA_site8974] | 9.82 ± 0.057 |
| TGAAATAACCCATGTGCATGCACTTCAATAACTGAA [TGCATGCA_site1041] | 10.1 ± 0.2 |
| TATAAATTAAAATCAGTGCATATTTTGAAAAACCTC | 9.985 ± 0.078 |
| TATATATATATATATTGTACATATTAATATTAGAAA [XGTACX_site8923] | 10.9 ± 0.62 |
| ATTACCATATAAAACACACAAACATACATACATACA [CACACA_site3729] | 10.5 ± 0.2 |
| TGGAGGTCAGTTCACAGTACCCAGAAACTCTACGAG [XGTACX_site2007] | 11.1 ± 0.76 |
| TATCATACCTTTTAATGTACACACATTTCTTTTTTG [XGTACX_site1655] | 11.4 ± 0.8 |
| TTACATGTAAAAGGTACACACATTAGATATACAAAT [CACACA_site6651] | 11.3 ± 0.84 |
| AATACTCAAAAGAATCGTACAAACAACACTCCCACG [XGTACX_site7564] | 11.1 ± 0.69 |
| TTTTACGTGAGTAATACACACATATAAGTTTATATA [CACACA_site4120] | 9.96 ± 0.16 |
| TATAACTTTTTTAATACACACAAATATTTATTTATA [CACACA_site7425] | 10.1 ± 0.21 |
| GGCATACACGAACACACACACACACGCACATATATA [CACACA_site6426] | 10.5 ± 0.45 |
| TACCACTTTCGAAGTAGTACATGGCTTTTTTTTTTT [XGTACX_site8379] | 11.5 ± 0.93 |
| TGTATGTTAAATACAACACACAAAAAAAAACAAGTT [CACACA_site4324] | 10.1 ± 0.11 |

| Sequence | gcPBM binding intensity (ln) |
| --- | --- |
| CACAGAAATATTCTTATACACACTGTTCTTATATTC [CACACA_site288] | 10.16 ± 0.028 |
| TAATATATATTATATACACACATATATATATATATA [CACACA_site428] | 10.2 ± 0.59 |
| TATACAGATAAATACACACACATATATATATATATA [CACACA_site4178] | 10.3 ± 0.46 |
| ATATATATATGTGTGTGTACATATGATTTCGCACTT [XGTACX_site4449] | 11.3 ± 0.76 |
| GTTATAATTTAGTCAAGTACATGCGTATGTATATTC [XGTACX_site3763] | 11 ± 0.74 |
| AAAGAAAGAAAACACACACACATATATATATATCAA [CACACA_site3743] | 9.85 ± 0.16 |
| TTTTTGTCTGCATACGCACACACGTGGACCATCTTA [CACACA_site8303] | 11.2 ± 0.8 |
| TATATATATATATGTACACACACACCGATAAATAAA [CACACA_site8041] | 11.6 ± 1.2 |
| ATATCATTATATAGTTGTACATATTTATTTATTTAT [XGTACX_site8995] | 11.5 ± 0.76 |
| AATATAGGAATATGCACACATATATACCTACATACA [CACACA_site4939] | 9.965 ± 0.049 |
| AAAAAAAAAAATACTAGTACGTAAAATTATATAAAT [XGTACX_site3019] | 11.2 ± 0.64 |
| CTATTTAAAATATGAACACACATTATTTGTTTTAGA [CACACA_site2713] | 9.855 ± 0.064 |
| ATTTCCCATACACGTTGTACAATGTAGAGAAAGTAT [XGTACX_site4586] | 11 ± 0.57 |
| GATATGTGTATAATATGTACATATATATATATATAT [XGTACX_site6531] | 11.3 ± 0.64 |
| TTTTGGTTAATTCCCCCCATTACATTATGTCATGTC [CACACA_negctrl_site229] | 11.2 ± 0.87 |
| ACATATATATATATATATTGATTTATTTATTTCCCT [CACACA_negctrl_site659] | 10.6 ± 0.34 |
| ATATATATATATAAATGTACAAAAATATATATGTAA [XGTACX_site4531] | 10.9 ± 0.49 |
| CTTCCTTAGGAATGTACACACATATAAAATATGTTG [CACACA_site6355] | 11.4 ± 0.84 |
| AAGAAAGAGTTCTGTTGTACAAAATATTAATATGTA [XGTACX_site7213] | 10.9 ± 0.28 |
| TAATACTTATATAAAGGTACACAATTTAACCGAATG [XGTACX_site7173] | 11.2 ± 0.54 |
| GTAAATATTCATATATGTACTTATGATATTTGCTAA [XGTACX_site6828] | 11.1 ± 0.69 |
| TTTATTAAGAAACACACACACACACCCAAAATAAAA [CACACA_site242] | 10.5 ± 0.44 |
